Values joined by “and” are separate entries in the source; they are usually repeats but may differ in a detail not shown here. Identical values can stand only once. Screen size: about 16,000 compounds; about 40 (0.2%) were called active. Roughly 1% stayed inconclusive and do not appear here. Calls follow the shape of the dose curve; as a rule, active = well fitted activation curve with a large enough effect; inconclusive = small, poorly fitted or top-dose-only effect, or another doubt; inactive = no such curve, though single readings can be large or run the other way. The list shows a part of the results.
target: Rap guanine nucleotide exchange factor 4 (Homo sapiens) (UniProt Q8WZA2); assay: Validation qHTS for agonist of cAMP-regulated guanine nucleotide exchange factor 4 (EPAC2); conditions: EPAC2 Rap1B BODIPY-GDP exchange, fluorescence; activation: hits give high values;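 also: exchange makes BODIPY-GDP fluorescence drop when released from Rap1B; series mostly up to about 150 µM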
Chain of UniProt Q8WZA2 (Q8WZA2 whole entry, looked up): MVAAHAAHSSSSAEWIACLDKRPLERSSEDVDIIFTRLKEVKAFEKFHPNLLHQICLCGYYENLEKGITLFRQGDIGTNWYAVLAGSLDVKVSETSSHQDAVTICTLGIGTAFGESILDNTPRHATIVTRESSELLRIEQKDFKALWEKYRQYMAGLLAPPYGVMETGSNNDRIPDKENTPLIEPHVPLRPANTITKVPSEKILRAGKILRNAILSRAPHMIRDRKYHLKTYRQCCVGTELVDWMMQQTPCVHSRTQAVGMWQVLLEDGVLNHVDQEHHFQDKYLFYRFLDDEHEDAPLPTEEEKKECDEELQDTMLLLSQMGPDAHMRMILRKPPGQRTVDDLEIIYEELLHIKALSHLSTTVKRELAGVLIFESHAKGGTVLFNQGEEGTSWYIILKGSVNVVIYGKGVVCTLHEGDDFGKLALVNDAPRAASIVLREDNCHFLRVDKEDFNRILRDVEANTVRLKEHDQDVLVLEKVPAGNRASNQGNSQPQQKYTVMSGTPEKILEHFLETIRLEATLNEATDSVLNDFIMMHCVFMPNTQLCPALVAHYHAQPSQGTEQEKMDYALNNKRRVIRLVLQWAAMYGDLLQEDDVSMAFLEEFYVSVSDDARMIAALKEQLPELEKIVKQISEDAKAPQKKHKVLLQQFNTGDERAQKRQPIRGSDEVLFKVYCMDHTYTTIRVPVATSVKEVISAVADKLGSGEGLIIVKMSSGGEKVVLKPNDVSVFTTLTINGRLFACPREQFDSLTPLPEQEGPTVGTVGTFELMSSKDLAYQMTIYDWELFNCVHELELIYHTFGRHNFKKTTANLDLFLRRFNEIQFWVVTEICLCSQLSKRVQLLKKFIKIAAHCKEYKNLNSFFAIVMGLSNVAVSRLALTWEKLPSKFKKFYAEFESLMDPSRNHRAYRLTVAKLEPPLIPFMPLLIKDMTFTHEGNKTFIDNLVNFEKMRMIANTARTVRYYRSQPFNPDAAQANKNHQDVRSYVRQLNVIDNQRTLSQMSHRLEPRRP
Text: Principle Investigator: Xiaodong Cheng Ph.D.
The University of Texas Medical Branch, […], TX
In multi-cellular eukaryotic organisms, the effects of cAMP are transduced by two ubiquitously-expressed intracellular cAMP receptors, the classic protein kinase A/cAMP-dependent protein kinase (PKA/cAPK) and the more recently discovered exchange protein directly activated by cAMP/cAMP-regulated guanine nucleotide exchange factor (EPAC/cAMP-GEF). Both PKA and EPAC are ubiquitously expressed in all tissues, and an increase in intracellular cAMP levels will lead to the activation of both PKA and EPAC. Therefore, careful dissections of the individual role and relative contribution of EPAC and PKA within the overall cAMP signaling in various model systems are critical for further elucidating the mechanism of cAMP signaling. To date no EPAC-specific antagonists and agonist, as well as isoform-specific agonists have been reported, and developing EPAC-specific pharmacological probes to determine the physiological functions that EPAC play in the overall cAMP-mediated signaling remains a major challenge within the research field. Furthermore, identified regulators of EPAC may lead to new mechanism-based therapeutic strategies specifically targeting the EPAC / cAMP-signaling components as EPAC has been implicated to play important roles in major human pathological conditions such as diabetes, heart disease, and cancer.
This qHTS will be used to screen the Molecular Libraries Small Molecule Repository (MLSMR) as a concentration-titration series using the NCGC unique quantitative screening (qHTS) platform to find activators for EPAC1. In addition, this assay will also be used as a counterscreen for the EPAC2 qHTS. This fluorescent based assay is developed and validated for EPAC1 that measures exchange using EPAC effector Rap1 complex with BODIPY-GDP, a GDP analog with a tethered fluorophores. Activators are identified by monitoring the change in fluorescence signal as the exchanged free BODIPY-GDP has a reduced fluorescence compared to Rap1-bound BODIPY-GDP. Increase in signal (activation) is the desired outcome for the EPAC1 agonist while no activity in this assay is desired for the EPAC2 agonist counterscreen.
[1] de Rooij, J., Zwartkruis, F. J., Verheijen, M. H., Cool, R. H., Nijman, S. M., Wittinghofer, A., and Bos, J.L. (1998) Nature 396, 474-477.
Briefly, three uL of reagents (100 nM EPAC2, 250 nM RAP1B-BODIPY-GDP, 50 uM GDP) were dispensed into a 1536-well Greiner black solid-bottom medium binding assay plate. Controls and test compounds (23 nL) were transferred to the plate via a Kalypsys pin tool equipped with a 1536-pin array. The plates were centrifuged at 1,000 rpm for 15 seconds followed by 5 minute incubation at room temperature. The assay plates were read at 5 minute intervals for 30 minutes in the ViewLux plate reader using 480nm excitation and 540nm emission filters. The results were normalized to the agonist positive control of 6.5 mM cAMP.
% is scaled to controls: 0 for no effect and ±100 for the full control effect.

Question: `C=CCN1C[C@H](C)N([C@H](c2ccc(C(=O)N(CC)CC)cc2)c2cccc(OC)c2)C[C@H]1C` was tested. Which activation did it give?
Answer: Its activation is inactive: 24.1% and inactive: -8.96%.

Question: Which activation does the source give for `O=C(O)c1ccc(NC(=O)N2C[C@H]3C[C@@H](C2)c2cccc(=O)n2C3)cc1` here?
Answer: Its activation is inactive: -7.83%.

Question: For `c1cc2c(cc1C1OC[C@@H]3C(c4ccc5c(c4)OCO5)OCC13)OCO2` (stereo partly drawn), which activation is on record?
Answer: Its activation is inactive: -17%.

Question: With `CCCCCCC[n+]1ccc(-c2cc[n+](CCCCCCC)cc2)cc1` as the molecule, how does the activation read?
Answer: The activation was inactive: -38.9%.

Question: How did the activation turn out when `OC1CCCCC1N1CCC(c2ccccc2)CC1` (stereo not drawn) was run?
Answer: The activation was inactive: -9.61% and inactive: -20.8%.

Question: Which activation does the source give for `CC(Cc1ccc(OCC(=O)O)cc1)NCC(O)c1cccc(Cl)c1` (stereo not drawn) here?
Answer: The activation was inactive: 7.27% and inactive: -20.6%.

Question: Which activation does the source give for `CC(C)=CCOc1c2occc2cc2ccc(=O)oc12` here?
Answer: The activation was inactive: -15.8% and inactive: -24.8%.

Question: For `NC(=O)c1ccc(N)nc1`, which activation is on record?
Answer: Its activation is inactive: 3.02%.

Question: How did the activation turn out when `N[C@@H](Cc1ccc(N(CCCl)CCCl)cc1)C(=O)O` was run?
Answer: Its activation is inactive: -8.35%.

Question: `CC1=CC(=O)c2c(O)cccc2C1=O` was tested. Which activation did it give?
Answer: The activation was inactive: 6.77% and inactive: 8.9%.

Question: With `CN1CCc2cc(Cl)c(O)cc2[C@H]2c3ccccc3CC[C@@H]21` as the molecule, how does the activation read?
Answer: Its activation is inactive: -3.95%.

Question: How did the activation turn out when `O=C(Oc1ccccc1)N1CCC[C@@]2(CCN(Cc3cc(C(F)(F)F)cc(C(F)(F)F)c3)C2)C1` was run?
Answer: Its activation is inactive: -40%.

Question: Which activation does the source give for `Cc1ccccc1-n1c(C)nc2ccccc2c1=O` here?
Answer: Its activation is inactive: -2.95% and inactive: -13.8%.

Question: How did the activation turn out when `C[C@@]12CCC(OS(=O)(=O)O)C[C@@H]1CCC1C2CC[C@]2(C)C(=O)CCC12` (stereo partly drawn) was run?
Answer: Its activation is inactive: -14.6%.

Question: `NCCc1ccc(S(=O)(=O)F)cc1` was tested. Which activation did it give?
Answer: The activation was inactive: -14.3%.

Question: `CCCCCCCCCCCCCCCCOC[C@@H](COP(=O)([O-])OCC[N+](C)(C)C)OC(C)=O` was tested. Which activation did it give?
Answer: Its activation is inactive: -1.22%.

Question: `C[C@H]1O[C@H](O[C@H]2[C@H](O)[C@@H](O)[C@@H](O)[C@H](O)[C@@H]2O)[C@@H](N)C[C@@H]1NC(=N)C(=O)O` was tested. Which activation did it give?
Answer: The activation was inactive: -13%.

Question: `C/C(O)=C(/C#N)C(=O)Nc1cc(Br)ccc1Br` was tested. Which activation did it give?
Answer: Its activation is inactive: -20.8%.

Question: Which activation does the source give for `CCN(CC)CCOC(=O)C(C)(c1ccccc1)c1ccccc1` here?
Answer: Its activation is inactive: -0.23%.

Question: For `CNC(=O)O/N=C/C(C)(C)SC`, which activation is on record?
Answer: Its activation is inactive: -6.87%.

Question: How did the activation turn out when `NCC(=O)c1cccc([N+](=O)[O-])c1` was run?
Answer: The activation was inactive: -19.2%.

Question: With `O=[N+]([O-])c1cc(O)c(O)c([N+](=O)[O-])c1` as the molecule, how does the activation read?
Answer: Its activation is inactive: -31.8% and inactive: -6.99% and inactive: -26.5%.

Question: How did the activation turn out when `CN[C@@H]1C[C@@H](c2ccc(Cl)c(Cl)c2)c2ccccc21` was run?
Answer: The activation was inactive: -7.46% and inactive: -20.7%.

Question: Which activation does the source give for `O=C(O)Cc1cccnc1C(=O)O` here?
Answer: The activation was inactive: -1.63% and inactive: -9.86%.

Question: `Cc1ccc(-c2nc3ccc(C)cn3c2CC(=O)N(C)C)cc1` was tested. Which activation did it give?
Answer: Its activation is inactive: -4.72%.

Question: Which activation does the source give for `Nc1nc(N)nc(NC2CC2)n1` here?
Answer: Its activation is inactive: -7.71%.

Question: `CN(C)CCN(C)CCc1ccc(Cl)c(Cl)c1` was tested. Which activation did it give?
Answer: Its activation is inactive: -11.7% and inactive: 2.72%.

Question: With `Nc1ccc(N=Nc2ccccc2)cc1` as the molecule, how does the activation read?
Answer: The activation was inactive: -19.5%.

Question: For `CCC12C=CCN3CCC4(c5ccc(OC)cc5N(C)C4[C@@](O)(C(=O)OC)C1OC(C)=O)C32` (stereo partly drawn), which activation is on record?
Answer: Its activation is inactive: -17.6%.

Question: How did the activation turn out when `CN[C@]1(c2ccccc2Cl)CCCCC1=O` was run?
Answer: The activation was inactive: 4.55%.

Question: Which activation does the source give for `C[C@H](N)CN1CCc2ccc(Br)cc21` here?
Answer: Its activation is inactive: -31.5%.

Question: With `CC(=O)C1=C(O)C2C3c4c[nH]c5cccc(c45)CC3C(C)(C)N2C1=O` (stereo not drawn) as the molecule, how does the activation read?
Answer: The activation was inactive: -9.59%.

Question: How did the activation turn out when `N[C@@H](Cn1ccc(=O)[nH]c1=O)C(=O)O` was run?
Answer: Its activation is inactive: -10.1%.

Question: How did the activation turn out when `CCCN(CCC)c1c([N+](=O)[O-])cc(C(F)(F)F)cc1[N+](=O)[O-]` was run?
Answer: The activation was inactive: -10.8%.

Question: How did the activation turn out when `C=CCN1CCC2(C)c3cc(O)ccc3C[C@H]1[C@H]2C` was run?
Answer: Its activation is inactive: -15.1%.

Question: `C=C(C)[C@H]1CN[C@H](C(=O)O)[C@H]1CC(=O)O` was tested. Which activation did it give?
Answer: The activation was inactive: -7.86% and inactive: -10.8%.

Question: With `NC1CC1c1ccccc1` (stereo not drawn) as the molecule, how does the activation read?
Answer: The activation was inactive: -18.1%.

Question: Which activation does the source give for `c1cnc(N2CC[C@@]3(CCCNC3)C2)nc1` here?
Answer: The activation was inactive: -2.15%.

Question: `CCC(C)(S(=O)(=O)CC)S(=O)(=O)CC` was tested. Which activation did it give?
Answer: The activation was inactive: -3.66%.

Question: How did the activation turn out when `O=c1cccc2n1CC1CC2CN2CCCC[C@H]12` (stereo partly drawn) was run?
Answer: The activation was inactive: 0.0153%.

Question: With `CC(C)N(C(=O)CCl)c1ccccc1` as the molecule, how does the activation read?
Answer: Its activation is inactive: -8.85%.

Question: `C[C@H](N)Cc1cnc[nH]1` was tested. Which activation did it give?
Answer: Its activation is inactive: -14.4% and inactive: -6.24%.

Question: For `CCC1(c2ccccc2)C(=O)NC(=O)N(C)C1=O` (stereo not drawn), which activation is on record?
Answer: The activation was inactive: -24.1%.
